The list shows a part of the results. The full chains were built here from the parent and the listed change. Inactive controls read about 0.05.
B1: TEV protease; numbered along this chain (parent)
chain: MGESLFKGPRDYNPISSSICHLTNESDGHTTSLYGIGFGPFIITNKHLFRRNNGTLVVQSLHGVFKVKDTTTLQQHLVDGRDMIIIRMPKDFPPFPQKLKFREPQREERICLVTTNFQTKSMSSMVSDTSCTFPSGDGIFWKHWIQTKDGQCGSPLVSTRDGFIVGIHSASNFTNTNNYFTSVPKNFMELLTNQEAQQWVSGWRLNADSVLWGGHKVFMVKPEEPFQPVKEATQL

Variants of: B1
Assay: raw area under fraction-flipped curve 0-4 h after induction (AUC4h, not background-subtracted), DNA-recorder readout of cleavage of the substrate (dimensionless); higher = more cleavage of the substrate by the protease variant
Conditions: temperature: 34 °C; time window: 0-4 h after rhamnose induction
Description: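 In vivo DNA recorder in E. coli TOP10(DE3) ΔrhaA at 34 °C. Each TEVp single-site mutant (parent TEVp 0) is paired with a single-site variant of the 7-mer TEVs (canonical ENLYFQ|S). The substrate sits between flexible linkers in a Bxb1-sfGFP-TEVs-SsrA fusion, so cleavage stabilises Bxb1 and speeds flipping of a recombination array, read by NGS. The value is the raw area under the fraction-flipped curve over 0-4 h after rhamnose induction (AUC4h), with ≥20 reads per time point. It is not background-subtracted; inactive controls average about 0.047.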
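Also: Bxb1 expression induced with 0.2% (w/v) L-rhamnose at OD600 near 0.5, cultures sampled hourly, flipped fraction per protease–substrate barcode pair counted by paired-end Illumina sequencing.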

MGESLFKGKRDYNPISSSICHLTNESDGHTTSLYGIGFGPFIITNKHLFRRNNGTLVVQSLHGVFKVKDTTTLQQHLVDGRDMIIIRMPKDFPPFPQKLKFREPQREERICLVTTNFQTKSMSSMVSDTSCTFPSGDGIFWKHWIQTKDGQCGSPLVSTRDGFIVGIHSASNFTNTNNYFTSVPKNFMELLTNQEAQQWVSGWRLNADSVLWGGHKVFMVKPEEPFQPVKEATQL [P9K]
area with substrate ENCYFQS: 0.0606 | area with substrate ENDYFQS: 0.0635 | area with substrate ENFYFQS: 0.0667 | area with substrate ENHYFQS: 0.0573 | area with substrate ENIYFQS: 0.109 | area with substrate ENQYFQS: 0.0337 | area with substrate ENRYFQS: 0.032 | area with substrate ENTYFQS: 0.064 | area with substrate ENVYFQS: 0.085

MGESLFKGYRDYNPISSSICHLTNESDGHTTSLYGIGFGPFIITNKHLFRRNNGTLVVQSLHGVFKVKDTTTLQQHLVDGRDMIIIRMPKDFPPFPQKLKFREPQREERICLVTTNFQTKSMSSMVSDTSCTFPSGDGIFWKHWIQTKDGQCGSPLVSTRDGFIVGIHSASNFTNTNNYFTSVPKNFMELLTNQEAQQWVSGWRLNADSVLWGGHKVFMVKPEEPFQPVKEATQL [P9Y]
area with substrate ENCYFQS: 0.0601 | area with substrate ENDYFQS: 0.0528 | area with substrate ENEYFQS: 0.0773 | area with substrate ENFYFQS: 0.0686 | area with substrate ENHYFQS: 0.0751 | area with substrate ENIYFQS: 0.15 | area with substrate ENKYFQS: 0.0554 | area with substrate ENNYFQS: 0.0588 | area with substrate ENQYFQS: 0.0504 | area with substrate ENSYFQS: 0.0616 | area with substrate ENTYFQS: 0.0742 | area with substrate ENVYFQS: 0.0781 | area with substrate ENYYFQS: 0.0364

MGESLFKGPRDYNPISSSICHLTNESDGHTTSLYGIGFGPFIITNKHLFRRNNGTLVVQSLHGVFKVKDTTTLQQHLVDGRDMIIIRMPKDFPPFPQKLKFREPQREERICLVTTNFQTKSMSSMVSDTSCTFPSGDGIFWKHWIQTKDGQCGSPLVSTRDGFIVGIHSASNFTNTNNYFTSVPKNFMELLTNQEAQQWVSGWRLNADSVLWGGHKVFMVKPEEPFQPVKEATLL [Q234L]
area with substrate ENAYFQS: 0.0657 | area with substrate ENCYFQS: 0.0707 | area with substrate ENDYFQS: 0.0572 | area with substrate ENEYFQS: 0.0628 | area with substrate ENGYFQS: 0.0267 | area with substrate ENHYFQS: 0.0573 | area with substrate ENQYFQS: 0.0683 | area with substrate ENSYFQS: 0.11 | area with substrate ENVYFQS: 0.0621

MGESLFKGPRDYNPISSSICHLTNESDGHTTSLYGIGFGPFIITNKHLFRRNNGTLVVQSLHGVFKVKDTTTLQQHLVDGRDMIIIRMPKDFPPFPQKLKFREPQREERICLVTTNFQTKSMSSMVSDTSCTFPSGDGIFWKHWIQTKDGQCGSPLVSTRDGFIVGIHSASNFTNTNNYFTSVPKNFMELLTNQEAQQWVSGWRLNADSVLWGGHKVFMVKPEEPFQPVKEATFL [Q234F]
area with substrate ENAYFQS: 0.0483 | area with substrate ENFYFQS: 0.068 | area with substrate ENHYFQS: 0.0514 | area with substrate ENIYFQS: 0.106 | area with substrate ENQYFQS: 0.0538 | area with substrate ENSYFQS: 0.0592 | area with substrate ENVYFQS: 0.0623 | area with substrate ENWYFQS: 0.0516 | area with substrate ENYYFQS: 0.0484

MGESLFKGPRDYNPISSSICHLTNESDGHTTSLYGIGFGPFIITNKHLFRRNNGTLVVQSLHGVFKVKDTTTLQQHLVDGRDMIIIRMPKDFPPFPQKLKFREPQREERICLVTTNFQTKSMSSMVSDTSCTFPSGDGIFWKHWIQTKDGQCGSPLVSTRDGFIVGIHSASNFTNTNNYFTSVPKNFMELLTNQEAQQWVSGWRLNADSVLWGGHKVFMVKPEEPFQPVKAATQL [E231A]
area with substrate ENAYFQS: 0.0699 | area with substrate ENEYFQS: 0.0603 | area with substrate ENFYFQS: 0.0564 | area with substrate ENGYFQS: 0.0703 | area with substrate ENHYFQS: 0.0519 | area with substrate ENIYFQS: 0.111 | area with substrate ENMYFQS: 0.06 | area with substrate ENNYFQS: 0.0591 | area with substrate ENPYFQS: 0.0589 | area with substrate ENQYFQS: 0.0611 | area with substrate ENRYFQS: 0.0546 | area with substrate ENSYFQS: 0.0775 | area with substrate ENTYFQS: 0.0534 | area with substrate ENVYFQS: 0.0901

MGESLFKGPRDYNPISSSICHLTNESDGHTTSLYGIGFGPFIITNKHLFRRNNGTLVVQSLHGVFKVKDTTTLQQHLVDGRDMIIIRMPKDFPPFPQKLKFREPQREERICLVTTNFQTKSMSSMVSDTSCTFPSGDGIFWKHWIQTKDGQCGSPLVSTRDGFIVGIHSASNFTNTNNYFTSVPKNFMELLTNQEAQQWVSGWRLNADSVLWGGHKVFMVKPEEPFQPVKQATQL [E231Q]
area with substrate ENAYFQS: 0.0627 | area with substrate ENCYFQS: 0.0714 | area with substrate ENFYFQS: 0.0673 | area with substrate ENGYFQS: 0.0705 | area with substrate ENHYFQS: 0.0668 | area with substrate ENIYFQS: 0.132 | area with substrate ENKYFQS: 0.0907 | area with substrate ENNYFQS: 0.0648 | area with substrate ENQYFQS: 0.0548 | area with substrate ENVYFQS: 0.0822

MGESLFKGPRDYNPISSSICHLTNESDGHTTSLYGIGFGPFIITNKHLFRRNNGTLVVQSLHGVFKVKDTTTLQQHLVDGRDMIIIRMPKDFPPFPQKLKFREPQREERICLVTTNFQTKSMSSMVSDTSCTFPSGDGIFWKHWIQTKDGQCGSPLVSTRDGFIVGIHSASNFTNTNNYFTSVPKNFMELLTNQEAQQWVSGWRLNADSVLWGGHKVFMVKPEEPFQPVFEATQL [K230F]
area with substrate ENAYFQS: 0.0729 | area with substrate ENDYFQS: 0.0597 | area with substrate ENEYFQS: 0.0715 | area with substrate ENFYFQS: 0.0604 | area with substrate ENGYFQS: 0.0575 | area with substrate ENHYFQS: 0.0532 | area with substrate ENIYFQS: 0.098 | area with substrate ENKYFQS: 0.0469 | area with substrate ENNYFQS: 0.0379 | area with substrate ENPYFQS: 0.0493 | area with substrate ENQYFQS: 0.065 | area with substrate ENRYFQS: 0.0769 | area with substrate ENSYFQS: 0.134 | area with substrate ENTYFQS: 0.0558 | area with substrate ENWYFQS: 0.0067

MGESLFKGPRDYNPISSSICHLTNESDGHTTSLYGIGFGPFIITNKHLFRRNNGTLVVQSLHGVFKVKDTTTLQQHLVDGRDMIIIRMPKDFPPFPQKLKFREPQREERICLVTTNFQTKSMSSMVSDTSCTFPSGDGIFWKHWIQTKDGQCGSPLVSTRDGFIVGIHSASNFTNTNNYFTSVPKNFMELLTNQEAQQWVSGWRLNADSVLWGGHKVFMVKPEEPFQPVIEATQL [K230I]
area with substrate ENAYFQS: 0.06 | area with substrate ENCYFQS: 0.0657 | area with substrate ENDYFQS: 0.0619 | area with substrate ENFYFQS: 0.0309 | area with substrate ENGYFQS: 0.0623 | area with substrate ENHYFQS: 0.0629 | area with substrate ENIYFQS: 0.131 | area with substrate ENNYFQS: 0.0718 | area with substrate ENPYFQS: 0.0585 | area with substrate ENQYFQS: 0.0649 | area with substrate ENRYFQS: 0.0675 | area with substrate ENVYFQS: 0.0685 | area with substrate ENYYFQS: 0.0492

MGESLFKGPRDYNPISSSICHLTNESDGHTTSLYGIGFGPFIITNKHLFRRNNGTLVVQSLHGVFKVKDTTTLQQHLVDGRDMIIIRMPKDFPPFPQKLKFREPQREERICLVTTNFQTKSMSSMVSDTSCTFPSGDGIFWKHWIQTKDGQCGSPLVSTRDGFIVGIHSASNFTNTNNYFTSVPKNFMELLTNQEAQQWVSGWRLNADSVLWGGHKVFMVKPEEPFQPVPEATQL [K230P]
area with substrate ENAYFQS: 0.0618 | area with substrate ENCYFQS: 0.0689 | area with substrate ENDYFQS: 0.0587 | area with substrate ENEYFQS: 0.0564 | area with substrate ENFYFQS: 0.0632 | area with substrate ENGYFQS: 0.0555 | area with substrate ENHYFQS: 0.0602 | area with substrate ENMYFQS: 0.0658 | area with substrate ENNYFQS: 0.0568 | area with substrate ENPYFQS: 0.0511 | area with substrate ENQYFQS: 0.0609 | area with substrate ENSYFQS: 0.0544 | area with substrate ENTYFQS: 0.0742 | area with substrate ENVYFQS: 0.0763 | area with substrate ENYYFQS: 0.0508

— the supplement of paper PMC12217912
